The other results are listed elsewhere or left out.

The subject of this assay is PfSIP2 AP2 domain 1 (GST-tagged). Kind of assay: gcPBM binding intensity (ln(normalized median fluorescence intensity)); higher = stronger DNA binding. Put shortly: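 Binding intensity is the highest Masliner-normalised natural-log median intensity over replicate spots in either probe orientation. To obtain it, GST-tagged P. falciparum DNA-binding domains made in E. coli were incubated for 1 h on an Agilent 4 × 180k array of primer-extended double-stranded 36-bp intergenic genomic probes plus negative controls. Detection used Alexa488 anti-GST antibody with scanning at 488 nm.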
On to “TAATTTTTTTTAATAACACACATATAAATATAAATA [CACACA_site6521]”, for which the “gcPBM binding intensity (ln)” value amounted to 7.01. As for “CATTTGCACCCGCACACACACATAAAAAGAAAAATA [CACACA_site4350]”, the figure is 11.6; as for “GAAACAATTTGATATTGTACATAAATAAATAAAAAC [XGTACX_site8869]”, 7.33. Then CATATTATTATTTTGGTGCATACTTATATATATTTT, with 9.74; and “GTACCTATTTCATACACACACACACCCAAACAAACA [CACACA_site976]”, with 7.61; and “AACATTGATAAATATAAACACACGAAAACAGACATA [CACACA_site490]”, with 7.2. As for “CTTGTACCTAGAAATACACACAATTCTATAACTTAT [CACACA_site7355]”, the figure is 6.99; as for “AATGTGTAGACACGCACACACAAAAAAATATATATA [CACACA_site5595]”, 7.29.

Consider “AATGTAGAAATGGGTGCACACACATATATAATATAT [CACACA_site8799]”, for which the “gcPBM binding intensity (ln)” value was 11.7. As to “GTTTTATTTTCAATGTGTACTTATTATTTGATATAC [XGTACX_site6402]”, the “gcPBM binding intensity (ln)” value worked out at 7.76. As for “TATAAAAATATTTCTACACACATTAAAATATATATA [CACACA_site4770]”, the “gcPBM binding intensity (ln)” value turned out to be 7.12. Then “CATTTGCCCAGGCACACACACATAAAAAGAAAAATA [CACACA_site356]”, with 7.16; and “AATGAAAGGATGCTGTGTACATATATATATATATAT [XGTACX_site7901]”, with 9.65. For the sequence “TGGTCTTTTAAACAAAAATATAAATTTTTAAATATG [CACACA_negctrl_site392]”, the “gcPBM binding intensity (ln)” value stood at 6.77.

On to “AAGAAAATTGTCTGAAGTACAAAACATTAATAATAT [XGTACX_site4864]”, for which the “gcPBM binding intensity (ln)” value was determined as 6.98.

“AATTTAATATAATGCACACATAAAAAAAAAAAATTC [CACACA_site1504]”: the “gcPBM binding intensity (ln)” value came out at 7.54. Then “AGCTTGTGGATGCAGGTGCTACATTTGTTCTATAAT [GTGCAC_site9645]”, with 7.66; and “AAGATAAATTATTATAAATCAATTGTGCCAACAATA [CACACA_negctrl_site144]”, with 6.69; and “TTTTTTTTGTGTTCAAGTACAAAATTTTAAAGGTCA [XGTACX_site4011]”, with 7.12.

Turning to “GGTTATTTCACAGAATGTACTTATTATATATAAAAT [XGTACX_site8886]”, the “gcPBM binding intensity (ln)” value worked out at 7.26. For “TATATATATATATAAGCACACAAACAAAAAAAATTA [CACACA_site9293]”, the “gcPBM binding intensity (ln)” value is 9.24. Then “TTGAGTTGTATAAAAAGTACAAGGTTTTAACTAAAT [XGTACX_site1447]”, with 7.07; and “TTATAATATTCATAAGGTACAGTTTATATATGTTAT [XGTACX_site8442]”, with 7.03; and “AATAATCATGATCAAAGTACGTATGATTAAAAAAAA [XGTACX_site4916]”, with 6.9. As to “TATATGTAAATGGACACACACATATATATATATATA [CACACA_site3659]”, the “gcPBM binding intensity (ln)” value is 9.36.

As to “TATGACCTTAGTAATTGTACACAAACATATTAATAT [XGTACX_site3340]”, the “gcPBM binding intensity (ln)” value came to 6.98. “GAGTATATGATATATATATATATATAAAAAAAAAAA [GTGCAC_negctrl_site99]”: the “gcPBM binding intensity (ln)” value turned out to be 7.15. “TGGTATATTATTTTTTGTACACATAAATGAAACATT [XGTACX_site5345]”: the “gcPBM binding intensity (ln)” value turned out to be 7.25. As for “ATATAGATTCGACACACACACAAAAAAAAAAAAAAA [CACACA_site7677]”, the figure is 7.12. As for “GTACCTATTTCATACACACACACACGCAAACAAACA [CACACA_site6590]”, the figure is 7.81. Turning to “CGTATATCACCAACTAGTACATATAAATAAATAAAT [XGTACX_site8837]”, the “gcPBM binding intensity (ln)” value came out at 7.27. As for “ATATATATATATATATGTACATATTATTATTTTGAT [XGTACX_site4752]”, the figure is 9.23; as for “ATATATATAATAAACACACACATATACATAGATGTA [CACACA_site5841]”, 7.49; as for “ATATATATTATATGCACACTAATAAGACTATTTAAA [CACACA_site3554]”, 9.68. For “GTATATGTACTATACGCACACACACCCACATATATA [CACACA_site9062]”, the “gcPBM binding intensity (ln)” value is 7.19. Then “TTGTACATCTTTTGCACACGTAATGTTATTATAATA [CACACA_site1258]”, with 7.5. Consider “TTATAACTTTTGAGCACACACAAGCATATAAATATA [CACACA_site6933]”, for which the “gcPBM binding intensity (ln)” value was 6.89. As for “AAATACTGTAAAAAAGCATGCCACTAATAATAATTA [TGCATGCA_site759]”, the “gcPBM binding intensity (ln)” value amounted to 6.81. Then TCATTTTTTTGTTTGGTGCGACTTGAAAATTTGATT, with 9.31; and “ACCTTTGTAGTTGGTCCACACACATATATGGAAGAA [CACACA_site8351]”, with 7.47; and “CATACATTTAAAAAGTGTACGTATATGAAAAAAGGA [XGTACX_site6512]”, with 7.58.

As for “TGTGTGTGTATATGTGTGCACATATAAAATAGAAGA [GTGCAC_site9714]”, the “gcPBM binding intensity (ln)” value is 8.95. On to “ATATGTGTTATTTATACATGCAGAAGAATATCTATT [TGCATGCA_site828]”, for which the “gcPBM binding intensity (ln)” value amounted to 7.06. As to “ACATATATATAATATATATATCATCATATTTTCTTA [CACACA_negctrl_site853]”, the “gcPBM binding intensity (ln)” value is 6.98. Consider “CTCAATATTATTACTACACACAAATTAAAATTTTCC [CACACA_site4203]”, for which the “gcPBM binding intensity (ln)” value came out at 7.18. As for “AGAGAATAAATATAAAGTACATATATAAATATATAT [XGTACX_site5055]”, the figure is 7.07; as for “ATGTTATAAATCTTAATATATATATGCAAAAGAGAA [XGTACX_negctrl_site521]”, 7.55; as for “ACATATACAAAACACACACACAACGTTTTAATAAAT [CACACA_site1979]”, 7.37. As for “GTATATAAAAATTCATGTACATATTATTATTTTTAA [XGTACX_site658]”, the figure is 7.24. With “CATATACATATATGTAGTACGTGTTCTTCTATATGA [XGTACX_site8344]”, the “gcPBM binding intensity (ln)” value turned out to be 7.11. Then “TACATATACAGACACACACACACACCCCCACAAAAA [CACACA_site495]”, with 8.23. Then “AAATTGAATTAGTTAACACACAACTTTTATTTCATA [CACACA_site2840]”, with 6.72; and “AATATATACATTTATATACACACCTATATATATATA [CACACA_site1972]”, with 9.21; and “AAATTAATAAGTCACACACACATATATAATATATAT [CACACA_site799]”, with 7.37.

As for “GTTATATGTTATATATATATATATATATATATATAT [TGCATGCA_negctrl_site428]”, the “gcPBM binding intensity (ln)” value amounted to 8.99. For the sequence “AGCATCATTTTACACACATGCAAATGTAAAATAGGA [TGCATGCA_site460]”, the “gcPBM binding intensity (ln)” value is 6.98. In the case of “ATAAAGATTAATTCAAGTACACATCAAATACTACAA [XGTACX_site8794]”, the “gcPBM binding intensity (ln)” value was 6.92.

For “TATATATATTTATGTACACACATCAATCATATTAAC [CACACA_site5127]”, the “gcPBM binding intensity (ln)” value came out at 7.35. As for TTTACCTCTTCAATGGTGCAATAACTCAAAAATTTG, the “gcPBM binding intensity (ln)” value was 9.67. Turning to “TTTTTATTTTATTAGTGTACTTTATATTTAACAATA [XGTACX_site1175]”, the “gcPBM binding intensity (ln)” value worked out at 7.24. Then “AAAAAAAAAAAAAGTACACACATACCTATAAATATA [CACACA_site6937]”, with 7.45; and “ATAAATAAAATAAAAGCACACAAAATGTAAATAATT [CACACA_site8895]”, with 6.89. Turning to “TTTATATACATTTTAAATTTTAATGTAACCCATGGG [TGCATGCA_negctrl_site115]”, the “gcPBM binding intensity (ln)” value is 6.81. For the sequence “TATATATTTATAAATGAACACACACCCAATTTGAAT [CACACA_site9113]”, the “gcPBM binding intensity (ln)” value stood at 7.29. For “TTTATTTTTATAAGAGCATGCACTGTTTAAAATGGT [TGCATGCA_site628]”, the “gcPBM binding intensity (ln)” value turned out to be 9.06.

As for “TATTTCTGATTACATACACACATATACAGATATGAC [CACACA_site7490]”, the “gcPBM binding intensity (ln)” value was 7.24. As for “TATATACCTATATACACACACATATATAAATAAATA [CACACA_site7341]”, the figure is 7.1; as for “TTATATATAATATATACACACACATGTATATATAAA [CACACA_site8603]”, 6.92.

Consider “TATGTTCCATTTTTTGGTACACATACAATAACTGCT [XGTACX_site2256]”, for which the “gcPBM binding intensity (ln)” value came out at 6.97. In the case of “ATTACATACGAGCACACGTAAAAGTATAATATAAAA [GTGCAC_negctrl_site446]”, the “gcPBM binding intensity (ln)” value turned out to be 6.94. As for “TTTGTATTGTGCAGATGTACATTATAATATTGGATT [XGTACX_site5033]”, the figure is 7.25; as for “AACAAATACAAAGAATAGTCATCTGAATGGTGTTAT [GTGCAC_negctrl_site685]”, 6.79; as for “ATATGTCACTTGTATACACACATATATATTTCAATC [CACACA_site3256]”, 7.33.

Turning to “CTGAAAAAAAAGCTTGCACACGTATTTGCTTTATGT [CACACA_site8427]”, the “gcPBM binding intensity (ln)” value was 7. Take “TTACTTATAAATAAATATACAAAAATGTTATATATA [XGTACX_negctrl_site223]”: the “gcPBM binding intensity (ln)” value worked out at 6.89. With “TTTTTTGTGTTTGGTACACACGTTATAAAAAATAAA [CACACA_site4866]”, the “gcPBM binding intensity (ln)” value amounted to 7.18.

On to “TTTTTTTTTTTTGAAGTGCATTACTTTTTTTGTATT [GTGCAC_site9811]”, for which the “gcPBM binding intensity (ln)” value amounted to 7.64. On to “GAAAATAGCTAAAATACACACAATTAAAAATTATTA [CACACA_site3506]”, for which the “gcPBM binding intensity (ln)” value came to 6.54. For the sequence “AGGAATATAAAGTGCACACATAATTTGGGGGCAAAA [CACACA_site258]”, the “gcPBM binding intensity (ln)” value turned out to be 11.7. As for “TTGTAAAACTTATAATGTACATTTTTTTTTTTTTTT [XGTACX_site5398]”, the figure is 7.27; as for “AGGGACATCTATATCACACACAAAAATTAGTCCCTT [CACACA_site7330]”, 6.86; as for “TTTTTTTTTTTTTGCACACACATTGAATTATTATTC [CACACA_site197]”, 7.28. As for “ATAAGAAAATATAAAATGCACACTATAAATTGTATA [CACACA_site143]”, the “gcPBM binding intensity (ln)” value is 7.87. As for “TATATAGAGAGATATGCACACTGTATGAATGCCCCC [CACACA_site5476]”, the figure is 9.53; as for “TATACCTATATACATACATGCAAATATATATTCATA [TGCATGCA_site269]”, 7.12; as for “ATAAAATAAACATAAATAAACATAAATAAACAAAAA [CACACA_negctrl_site1270]”, 6.99.

For “AGGTATATATACATATGTACGTATATATATATATAT [XGTACX_site5115]”, the “gcPBM binding intensity (ln)” value worked out at 9.43.

Consider “TTTAAAAATAAAAGTACACACATAAACATATTACAC [CACACA_site1428]”, for which the “gcPBM binding intensity (ln)” value came out at 7.36. Then “TATAATACAACATGCACACATATATATGTGAATCTC [CACACA_site2490]”, with 7.18.
